± gives the standard deviation of the averaged measurements. The list shows a part of the results.
tested on: PfAP2-EXP AP2 domain (GST-tagged); test: gcPBM binding intensity (ln(normalized median fluorescence intensity)); higher = stronger DNA binding
Outline: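 GST-fused DNA-binding domains of P. falciparum, expressed in E. coli, were applied at about 25 μg on average for 1 h to an Agilent 4 × 180k array of primer-extended double-stranded 36-bp intergenic genomic probes and negative controls. Binding intensity is the highest Masliner-normalised natural-log median intensity across replicate spots of either probe orientation, measured with Alexa488 anti-GST antibody and a 488 nm scan.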

Sequence | gcPBM binding intensity (ln)
AGAAAATACACGCATACACACACACCCACCCACATA [CACACA_site8115] | 9.13 ± 0.33
ATTCGGATATATATCACACATAACTTTAATAATATA [CACACA_site5720] | 8.43 ± 0.38
AATTAAAAATTCAAGTGTACTTTTATATTATTATAC [XGTACX_site4106] | 8.34 ± 0.23
ATTATAATAGTTAAATGTACACACTAACTACATGGA [XGTACX_site6918] | 8.58 ± 0.24
TAAATAGCCAAACGCACACCCACAAAAAAAAAAAAA [CACACA_site1554] | 8.25 ± 0.35
AGAGAATATTTCCACACATGCAAATGTTATATGTAA [TGCATGCA_site282] | 8.68 ± 0.13
ATTGATTTTTAATATACACACATAAGGACCACAAAA [CACACA_site4344] | 8.99 ± 0.26
AATTATATTAATTCTTCATTACATTTTAAAATATTA [XGTACX_negctrl_site510] | 8.46 ± 0.49
AATACGCATTTTAGTACACACTTAAAAAGTTATTTT [CACACA_site7401] | 8.415 ± 0.078
TTATAATATAAAAATAAATAAATAAATAAATAAATA [CACACA_negctrl_site1587] | 8.55 ± 0.11
TTCGTTATATTTTGATGTACTGATTCATATATATAT [XGTACX_site1835] | 9.435 ± 0.007
TGCTATTATTTATGTACACACCAATTTATTTATAAT [CACACA_site6029] | 8.89 ± 0.29
GGAAAGACATTACACAGTACCCAGGAAATCTACGGA [XGTACX_site2002] | 8.49 ± 0.61
TAATATTTATTCTATTGTACATAAAATATATATATA [XGTACX_site7132] | 9.225 ± 0.078
ATAAATAAAAAACACACACACACACCCAAAAAAAAA [CACACA_site2624] | 8.68 ± 0.51
TCAACATTTAAAAATAGTACTCATAAACCTTTCGAA [XGTACX_site4111] | 8.13 ± 0.38
ATTATATATGTATAAATATGCTATATATATATATAT [GTGCAC_negctrl_site430] | 10.3 ± 0.17
TATACATATGTATGCACACATACATACACATAGAAT [CACACA_site3480] | 8.44 ± 0.33
TATATTATTTAAAAAGTGCAGTTACAAGATGAACCT [GTGCAC_site9641] | 8.37 ± 0.18

Sequence | gcPBM binding intensity (ln)
TTTGGAATATAATATTGTACATATTATATATATATA [XGTACX_site3187] | 9.63 ± 0.27
TTTTTTTTTAAATATACACACACATTTATACATATA [CACACA_site9122] | 8.38 ± 0.32
AATGTATTTATTTTTTGTACATATCGTGTGTGTATT [XGTACX_site1009] | 8.77 ± 0.42
TTCTATTATGTGACTCAATTCTTCATGGGTGTATAA [TGCATGCA_negctrl_site140] | 8.61 ± 0.45
TTATTTATTTTTATATGTACACAAAAAAAAAAAAAA [XGTACX_site1459] | 8.43 ± 0.35
AATATATATAACGTTGGTACACAAAAATTATTAAAT [XGTACX_site8572] | 8.9 ± 0.37
TTTTTTTTTTTTTTAACACACATATATATATTTTTC [CACACA_site1922] | 8.34 ± 0.52
CCTCATCCACTATGCACACAAAAAAGAAATACACTA [CACACA_site3422] | 8.88 ± 0.21
TTCTCAAATATAATAAAATTATAAAGTGACCTAACT [GTGCAC_negctrl_site493] | 8.31 ± 0.38
TAATGGATTATACGTGCACACATATATACAAATAAA [CACACA_site8116] | 9.36 ± 0.52
TTCTTCAATAATAAGTGTACATATGCATACATTATA [XGTACX_site1502] | 8.71 ± 0.25
ATAATAAAATAAGAAGCACACAAATATTATATATAA [CACACA_site9319] | 8.79 ± 0.39
AATTAAAAAATTTATGCACACTTTAAAAAAAAAAAA [CACACA_site5962] | 8.34 ± 0.29
GATATGATATGATATGCATGTAACAAATTTTTTTAA [TGCATGCA_site268] | 8.98 ± 0.39
AAAAAAAAATATATATATATATATATATTTATGTAT [GTGCAC_negctrl_site483] | 8.38 ± 0.25
AAAAAAAATAAAAATAGTACTCAAAAAATTATGAAT [XGTACX_site3073] | 8.54 ± 0.38
ATATTAATTTCTTATGCATGTTCTACCAAATTGTAT [TGCATGCA_site38] | 9.12 ± 0.66
AATTATTCTCTTTTCATTTGAACAATATGCTTAAAA [CACACA_negctrl_site995] | 8.64 ± 0.54
AATATTTTTTAAATGTGTACATAGGTATAGCACACA [XGTACX_site8690] | 8.455 ± 0.035

Sequence | gcPBM binding intensity (ln)
GACTGCACTTTAAGCACACAAATATATTTTTTTTAT [CACACA_site1249] | 8.72 ± 0.23
ACAAATATGAGAAATTGTACATATAATAAAATAGTA [XGTACX_site2573] | 8.63 ± 0.37
AGTCATATAAATAGTAGTACTGTGTGTGAAGAAAAA [XGTACX_site5056] | 8.91 ± 0.38
ACACATTCGAAAAATTGTACATATATAACAGAATAT [XGTACX_site7106] | 8.65 ± 0.46
ATATTAGTCGAATGATGTACACACATACAAAACATT [XGTACX_site8613] | 8.57 ± 0.42
ATCAAATTTGGACATGCATGTGTGTGTAAAACCATG [TGCATGCA_site309] | 9.98 ± 0.18
TAATTAAAAAATAAAAAAAAAAAAAATTAAAACAAA [CACACA_negctrl_site500] | 8.15 ± 0.51
TGCTAATAATTATTTGTTTAGCAACAAAAAAAAAAA [CACACA_negctrl_site1541] | 8.11 ± 0.6
TTCTTTTTAATTTATTTTTTCTTATAACAAGAAAAC [CACACA_negctrl_site201] | 8.61 ± 0.41
GTACATACATAAAACACACACATATATATATATATA [CACACA_site1826] | 10.2 ± 0.75
TTCTTTTCTTTTTTCTTTTTTTTTTTCTTTTCTTTT [GTGCAC_negctrl_site630] | 8.59 ± 0.61
AGAAAAGGACATATATGTACTTATCAATATAGAAAC [XGTACX_site1042] | 8.8 ± 0.4
AAAAAAAAAAAAAAAACATGCAAAATAATATATATA [TGCATGCA_site68] | 9.03 ± 0.26
TCACATATGTTCCATTGTACTTGTAGTAATTTTTTC [XGTACX_site6473] | 8.73 ± 0.46
GTAATATGTATCCATACACACATACATTTTATTTGC [CACACA_site4640] | 8.69 ± 0.33
ATAAAATGAAATATATGTACGCATCACTTGTTGAAC [XGTACX_site4530] | 8.72 ± 0.27
CATATTTGGAAACACACACACATATTTATATATATA [CACACA_site3569] | 8.99 ± 0.014
TATATTTTACTCTTCACACATATACTCAATTTATAT [CACACA_site5357] | 8.94 ± 0.31
